Hit rate of the full screen: of about 45,000 compounds, about 200 (0.44%) were called active. About 7% were inconclusive and are not listed. Calls come from the whole dose curve; as a rule, active = well fitted activation curve with a large enough effect; inconclusive = small, poorly fitted or top-dose-only effect; inactive = no such curve, though single readings can be large or run the other way. Some of the results follow.
Experiment: qHTS of TDP-43 Inhibitors: NCGC Sytravon Library Screen; note: 0% is about no effect; nearly all actives have a fitted effect of over 55% in size
Details: yeast TDP-43 toxicity rescue, BacTiter-Glo growth, 24 h; series mostly up to 46.1 µM; growth rescue (activation): at the top concentration
Method in brief: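 TDP-43-expressing yeast, pregrown in raffinose, seeded at OD600 0.02 in galactose medium with compound for 24 hr at 30 deg C. Growth read by BacTiter-Glo luminescence, so rescue of toxicity appears as activation.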

Row | SMILES | growth rescue (activation)
1 | CCN(CC)S(=O)(=O)c1ccc(N2CCOCC2)c(NC(=O)C2CCCC2)c1 | inactive: 10.4%
2 | C[C@@H]1CN(Cc2nc(-c3ccc(Cl)cc3)no2)C[C@H](C)O1 | inactive: 9.26%
3 | Cc1c(NC(=O)NC2CCCCC2)cccc1[N+](=O)[O-] | inactive: -11.3%
4 | CC(=O)N1CCN(C(=O)COc2ccc(N(C)S(=O)(=O)c3cccs3)cc2)CC1 | inactive: -6.83%
5 | O=C(Nc1nccs1)c1ccc(S(=O)(=O)N2CCOCC2)cc1 | inactive: 16.3%
6 | CCN(CC)CCN1C(=O)C2C(C(=O)Nc3cccc(C)c3)C3C=CC2(O3)C1C(=O)NC1CCCC(C)C1C (stereo unspecified) | inactive: 8.53%
7 | CCCS(=O)(=O)NC(=O)C1(C)CCCN(C(=O)c2c(OC)cccc2OC)C1 (stereo unspecified) | inactive: -5.68%
8 | Cc1cc(SCC(=O)Nc2ccc(O)cc2)n2nc(C)c(-c3ccccc3)c2n1 | inactive: 37.4%
9 | O=C(CSc1nc(-c2ccccc2)cc(=O)[nH]1)NCc1ccc2c(c1)OCO2 | inactive: 14.2%
10 | CC12COC3(C(=O)Nc4ccc5ccccc5c4)CC1CCC32C (stereo unspecified) | inactive: 17.6%
11 | NC(CCc1ccccc1)c1csc(Nc2ccc(C(=O)NCCCO)cn2)n1 (stereo unspecified) | inactive: 5.9%
12 | COCCNC(=O)COc1cccc2c1OC(C)(C)C2 | inactive: 4.4%
13 | CCOC(=O)N=Nc1c(O)n(C)c2ccccc12 | inactive: 20.9%
14 | O=C(c1ccccc1Cl)N1CCN(S(=O)(=O)c2cccs2)CC1 | inactive: 25.9%
15 | Cc1csc(NC(=O)c2cnc3ccccc3n2)n1 | inactive: 16.9%
16 | COc1ccc(C)cc1NC(=O)CN(c1ccc(C)cc1)S(C)(=O)=O | inactive: 9.47%
17 | CN(C)c1ccc(NC(=O)Nc2nc(C(N)C3CCCCC3)cs2)cc1 (stereo unspecified) | inactive: 1.69%
18 | CCOC(=O)c1cc(-c2ccccc2)sc1N | inactive: 44.7%
19 | CCC(=O)NC(=S)Nc1ccc(NC(=O)c2cccc([N+](=O)[O-])c2C)cc1 | inactive: 9.44%
20 | Cc1cc(C)c(NS(=O)(=O)c2ccc(NC(=O)c3cccs3)cc2)c(C)c1 | inactive: 18.8%
21 | COc1ccc(-c2cnc(SCC(=O)Nc3ccc4c(c3)OCO4)n2Cc2ccco2)cc1 | inactive: 29.4%
22 | CCCn1c(SCC(=O)N(C)C2CCS(=O)(=O)C2)nc2sc3c(c2c1=O)CCC3 (stereo unspecified) | inactive: -5.58%

Row | SMILES | growth rescue (activation)
23 | CN(C)S(=O)(=O)c1cccc(NC(=O)CSc2ncnc3ccccc23)c1 | inactive: -15.7%
24 | CCn1ncc(CN2CCN(Cc3ccc(OC)c(C)c3C)C(CCO)C2)c1C (stereo unspecified) | inactive: 6.58%
25 | COC(=O)c1ccc(C(=O)OC)c(NC(=O)CSCc2ccc(Cl)cc2)c1 | inactive: 6.53%
26 | CCC1CCCCN1C(=O)CSc1nc(C)cc(C)n1 (stereo unspecified) | inactive: 0.665%
27 | COc1ccc(C2CCCN2C(=S)Nc2cccc(C)c2)cc1OC (stereo unspecified) | inactive: 23.3%
28 | Cn1c(SCC(=O)NC2CCCC2)nnc1-c1cccs1 | inactive: -3.85%
29 | COc1ccc(OC)c(CCNC(=O)CCCc2nnc3n(C)c(=O)c4sccc4n23)c1 | inactive: 11.5%
30 | CC1CC(=O)Nc2ccc([N+](=O)[O-])cc2N1C (stereo unspecified) | inactive: 0.707%
31 | O=C(COC(=O)c1ccc(Cl)cc1)NCC1CCCCC1 | inactive: -26.6%
32 | CSc1sc(C)cc1/C=N/O | inactive: 2.16%
33 | CCOC(=O)c1[nH]cnc1C(=O)Nc1cccc(Cl)c1 | inactive: 9.55%
34 | O=C(N/N=C/c1cc2c(cc1[N+](=O)[O-])OCO2)c1cccnc1 | inactive: -17.1%
35 | COc1cc(NC(=O)C2(C)CCCN2C)cc(OC)c1OC (stereo unspecified) | inactive: -2.41%
36 | Cc1ccc(S(=O)(=O)N(C)c2c(C)ccc(S(=O)(=O)N3CCN(C=O)CC3)c2C)cc1 | inactive: 18.3%
37 | Cc1[nH]nc2c1C(C(C)C)C(C#N)=C(N)O2 (stereo unspecified) | inactive: -7.19%
38 | O=C(OCc1cc([N+](=O)[O-])cc2c1OCOC2)c1ccccn1 | inactive: -0.592%
39 | Cc1ccc(S(=O)(=O)Nc2cccc(Cl)c2)cc1NC(=O)c1cccnc1 | inactive: 2.93%
40 | O=C(CCl)N1CCN(C(=O)C2COc3ccccc3O2)CC1 (stereo unspecified) | inactive: 5%
41 | Cc1cccc(-n2c(N)c(-c3nc4ccccc4n3C)c3nc4ccccc4nc32)c1 | inactive: 5.16%
42 | Cc1ccc(NC(=O)c2cc(-c3ccc4c(c3)OCO4)on2)cc1 | inactive: 10.6%
43 | O=S(=O)(NCCc1ccccc1)c1ccc(-n2cnnn2)cc1 | inactive: -6.11%
44 | COc1cc(NC(=O)c2cc(C)nc3ccccc23)cc(OC)c1OC | inactive: 6.67%

Row | SMILES | growth rescue (activation)
45 | C/C(=N\NC(=O)Cn1nc(C)c([N+](=O)[O-])c1C)c1ccc(Cl)s1 | inactive: 5.27%
46 | Cc1cc(C(=O)N/N=C/c2c(C)nn(-c3ccccc3)c2C)n[nH]1 | inactive: 16.5%
47 | COC(=O)CN(c1cc(Cl)ccc1OC)S(=O)(=O)c1ccc(C)cc1 | inactive: 12.8%
48 | O=C(Nc1nnc(CCS(=O)(=O)c2ccc3ccccc3c2)s1)c1ccc([N+](=O)[O-])cc1 | inactive: -13%
49 | COc1ccc(N(CC(=O)N/N=C/c2ccccc2OC)S(=O)(=O)c2ccccc2)cc1 | inactive: 1.93%
50 | Cc1ccc(C(=O)N/C(=C/c2ccccc2)C(=O)NC(Cc2ccccc2)C(=O)O)cc1 (stereo unspecified) | inactive: 6.43%
51 | COc1ccc(CCNc2nc(C)c(C(C)=O)s2)cc1OC | inactive: 17.5%
52 | Cc1cc([N+](=O)[O-])nn1CC(=O)N(C)C1CCCCC1 | inactive: 2.11%
53 | COc1ccc(CNC(=O)CN2CCN(c3cccc(C)c3C)CC2)cc1 | inactive: 8.53%
54 | CC1(C(=O)NS(=O)(=O)c2ccc(C#N)cc2)CCN1C(=O)C1(c2ccccc2)CCCC1 (stereo unspecified) | inactive: 3.31%
55 | N#Cc1ccccc1NC(=O)COC(=O)CN1C(=O)C2CCCCC2C1=O (stereo unspecified) | inactive: -8.58%
56 | N#Cc1ccccc1NC(=O)Nc1cccs1 | inactive: 14.6%
57 | Cc1ccc(OCCn2cc(C(=O)O)c3ccccc32)cc1 | inactive: -18.8%
58 | CC(C)CN(CC(C)C)C(=O)Nc1ccccc1F | inactive: 2.14%
59 | O=C(NC(Cc1ccccc1)C(=O)O)/C(=C/c1cccc([N+](=O)[O-])c1)NC(=O)c1ccco1 (stereo unspecified) | inactive: -0.768%
60 | O=[N+]([O-])c1ncccc1OCc1ccc(Br)cc1F | inactive: 10.2%
61 | Cc1nc2c(cc1C(=O)N/N=C/c1ccc([N+](=O)[O-])cc1)c(=O)n(C)c(=O)n2C | inactive: 1.99%
62 | COc1c(C)cc(C(=O)C2CCCN(C(=O)c3cc(C)nc(C)n3)C2)cc1C (stereo unspecified) | inactive: -6.18%
63 | O=C(Nc1sc2c(c1C(=O)O)CCC2)c1cccc(Cl)c1 | inactive: -0.484%
64 | CCN(CC)S(=O)(=O)c1cc(C(=O)OCC(=O)Nc2ccc(-c3nc4ccc(C)cc4s3)cc2)ccc1F | inactive: 16.7%
65 | CNc1ncnc2c1ncn2[C@H]1CN(Cc2cccnc2)C[C@@H](CO)O1 | inactive: -0.757%
66 | O=C(COC(=O)/C=C/c1ccc(F)cc1)NC1CCCC1 | inactive: 18.4%

Row | SMILES | growth rescue (activation)
67 | CCOc1ccc(S(=O)(=O)n2cnc3ccccc32)cc1 | inactive: 0.191%
68 | CCc1nn(CC(=O)NCc2cccc(OC)c2OC)c(=O)c2cc3occc3n12 | inactive: -0.408%
69 | CCOC(=O)C1(C)CCCN(C(=O)c2ccc(OC)cc2OC)C1 (stereo unspecified) | inactive: -0.157%
70 | O=C(O)c1ccccc1-c1ccccc1C(=O)Nc1cccc(-c2nc3ccccc3o2)c1 | inactive: -8.72%
71 | COC(=O)c1c(NC(NC(=O)C(C)C)C(Cl)(Cl)Cl)sc2c1CCC2 (stereo unspecified) | inactive: -22.5%
72 | CCCCC(=O)N(C)c1c(C)nc2ccc(C(=O)Nc3cccc(OC)c3)cn12 | inactive: -1.86%
73 | CN(c1ccc(C(=O)N2CCN(c3ccccc3F)CC2)cc1)S(=O)(=O)c1ccccc1 | inactive: 28.5%
74 | COc1ccc(-n2c(SCC(=O)NCC3CCCO3)nc3c([nH]c4ccccc43)c2=O)cc1 (stereo unspecified) | inactive: -3.23%
75 | Cc1cccn2c(=O)c3cc(C(=O)N4COCC4(C)C)n(Cc4ccccc4)c3nc12 | inactive: -3.69%
76 | CCOC(=O)c1sc(NC(=O)CSc2nncn2C)nc1C | inactive: 12.5%
77 | N#CCSc1nc(-c2ccccc2)c2cc(Cl)ccc2n1 | inactive: 3.94%
78 | Fc1ccccc1-c1nc(NC2CCCC2)c2ccccc2n1 | inactive: -1.57%
79 | COc1ccc(C(OC(=O)c2ccco2)C(=O)NC2CCCC2)cc1OC (stereo unspecified) | inactive: -0.0762%
80 | COC(=O)c1ccc(OC)c(CN2CCCN(Cc3cc(C)ccc3C)S2(=O)=O)c1 | inactive: 6.33%
81 | C=C1N(c2cccc(Cl)c2)C(=O)OC1(C)C | inactive: 6.26%
82 | C/C(=N\OCc1ccc(C#N)cc1)c1cc2ccccc2o1 | inactive: 13.1%
83 | CC(=O)Nc1ccc(NC(=O)COc2ccc(S(=O)(=O)N3CCCC3)cc2)cc1 | inactive: 7.05%
84 | COc1ccc(/C=C2/C(=O)C(C)(C(C)C)CCC2C)cc1 (stereo unspecified) | inactive: 2.38%
85 | CC(C)n1cc(/C=N/Nc2ccc(C(=O)O)cc2)c2ccccc21 | inactive: 19.6%
86 | COc1ccc(NC(=S)N2CCCCC2c2cccnc2)cc1 (stereo unspecified) | inactive: 6.7%
87 | COc1ccc(Cl)cc1N(C(C)C(=O)NC1CCCC1)S(C)(=O)=O (stereo unspecified) | inactive: 1.97%
88 | CCN(CC)C(=S)SCC(=O)c1c(C)[nH]c2ccccc12 | inactive: -1.71%

Row | SMILES | growth rescue (activation)
89 | COCCNC(=O)C(OC(=O)c1nsc(Cl)c1Cl)C(C)C (stereo unspecified) | inactive: 1.41%
90 | CN(C)CCCNC(=O)/C(=C\C=C\c1ccccc1)NC(=O)c1ccc([N+](=O)[O-])cc1 | inactive: -2.87%
91 | O=C(CSc1ccc2ccccc2c1Br)Nc1cccc(S(=O)(=O)NC2=NCCCCC2)c1 | inactive: 3.87%
92 | Cc1ccc(C)c(NC(=O)C(OC(=O)c2ccc(CO)cc2)c2ccccc2)c1 (stereo unspecified) | inactive: -10.5%
93 | CCCSc1oc(-c2ccco2)nc1S(=O)(=O)c1ccc(C)cc1 | inactive: -0.0984%
94 | CC(C)Oc1ccc(C(=O)NCCNC(=O)c2ccco2)cc1 | inactive: 15%
95 | Cc1ccc(NC(=O)N2CCC(NC(=O)c3cccc(C)c3)CC2)cc1 | inactive: 5.3%
96 | CCN(CC)CCN1C(=O)C(O)=C(C(=O)c2cc3cccc(OC)c3o2)C1c1cccs1 (stereo unspecified) | inactive: -1.03%
97 | CCCC(=O)Nc1ccc(-c2csc(NNC(C)=O)n2)cc1 | inactive: -17.8%
98 | Cc1ccc(S(=O)(=O)N2c3ccc(S(N)(=O)=O)cc3CC2C)cc1 (stereo unspecified) | inactive: -2.08%
99 | O=[N+]([O-])c1cc([N+](=O)[O-])c2cc3ccccc3nc2c1 | inactive: -19.7%
100 | CCCc1nc2cc(Cl)c([N+](=O)[O-])cc2o1 | inactive: 10.4%
101 | CC(=O)Nc1ccc(S(=O)(=O)Nc2ccc(S(=O)(=O)Nc3nc(C)cc(C)n3)cc2)cc1 | inactive: -4.41%
102 | Cc1ccc(C(=O)N(C)Cc2ccccc2)cc1S(=O)(=O)N1CCOCC1 | inactive: 13.6%
103 | COc1ccc2c(c1OC)C(=O)OC2Nc1nc(-c2ccc([N+](=O)[O-])cc2)cs1 (stereo unspecified) | inactive: 9.46%
104 | CC(C)(C)NC(=O)NC(=O)CN1CCN(Cc2ccccc2)CC1 | inactive: -5.93%
105 | OC(c1cccc(Cl)c1)c1ncc(-c2ccc3ccccc3c2)[nH]1 (stereo unspecified) | inactive: 5.68%
106 | Cc1ccc(S(=O)(=O)Nc2ccc(O)c(Sc3ncn[nH]3)c2)cc1 | inactive: 11.8%

Reference: PubChem BioAssay AID1347073 (National Center for Advancing Translational Sciences (NCATS), 2019)
